Reference: article PMC12040169 (PLOS Biology, 2025)
Some of the results follow.

Tested on: T1, C. trachomatis L2/434/Bu expressing GFP (CTL2-GFP)
T1 construct: L2/434/Bu GFP intracellular growth in HeLa cells
Set-up: species or system HeLa; C. trachomatis total inclusion area by high-content imaging, normalised to DMSO
Details: total inclusion area; 28.5 h, 10 µM; inhibitor
Method in brief: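 Host cell viability was gauged from Hoechst-stained nuclei counts, while chlamydial growth was taken from total inclusion area and inclusion number per well. Cells were fixed and imaged by high-content microscopy once bulk GFP and resorufin fluorescence had been measured.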

Row | Structure (SMILES) | % of control remaining
1 | Cc1oc(-c2ccccc2)nc1C(=O)O [CBK047490] | 81.0462
2 | Cc1ccc(C)c2[nH]c(=O)c(CN(CCN3CCOCC3)Cc3nnnn3C3CCCCC3)cc12 [CBK108116] | 79.1747
3 | COc1ccccc1NC(=O)/C(=C\c1cccnc1)NC(=O)c1ccccc1 [CBK261649] | 100.62
4 | Cc1ccc(S(=O)(=O)Nc2nccnc2-c2ccc(Cc3nnn[nH]3)cc2)cc1 [CBK073841] | 92.7541
5 | COCOc1ccc(-c2ncc(OC)nc2NC(=O)COC)cc1 [CBK145216] | 101.291
6 | CC(=O)N1C[C@@H](c2ccsc2)[C@@H]2CN(CC3CCCCC3)CC[C@@H]21 [CBK284587] | 120.218
7 | CN1CCN(C(=O)c2cc(-c3ccc(C(=O)N4CCOCC4)cc3)cnc2N)CC1 [CBK158584] | 84.2068
8 | O=C(N/N=C/c1ccc([N+](=O)[O-])cc1)C(=O)Nc1cccc(Cl)c1 [CBK261821] | 88.757
9 | CC1(C)CC(NC(=O)c2cc([N+](=O)[O-])ccc2Cl)CC(C)(C)N1 [CBK263948] | 95.6897
10 | O=C(O)CCC(=O)Nc1cccc(C(=O)Nc2cccc(Cl)c2)c1 [CBK296977] | 94.3109
11 | Fc1cc(F)cc(-c2nnc(Cc3nc(-c4ccncc4)no3)o2)c1 [CBK288602] | 91.1146
12 | Cc1ccc(Nc2nc(N)nc(CN3CCN(Cc4ccc5c(c4)OCO5)CC3)n2)cc1 [CBK268985] | 106.363
13 | O=C(NCCN1CCOCC1)C1CCN(C(=O)c2cccc(F)c2)CC1 [CBK304627] | 36.2168
14 | CC[n+]1c(C(C)(C)C)csc1NCC1CC1 [CBK011154B] | 64.2529
15 | CCN(CC)CCNC(=O)c1c(O)c2ccccc2n(Cc2ccccc2)c1=O [CBK291199] | 70.2783
16 | O=C(CN1C(=O)c2ccccc2C1=O)OCC(=O)N1c2ccccc2Sc2ccccc21 [CBK264701] | 104.599
17 | COC(=O)c1ccccc1NC(=O)COc1ccc(Cl)c2cccnc12 [CBK266037] | 150.297
18 | Cc1ccc(N2C(=O)c3ccccc3C2Nc2ccccc2)nc1 (centres unmarked) [CBK113238] | 86.4458
19 | CN(C)CCNc1nc(-c2cccc3ncccc23)cnc1N [CBK063693] | 140.019
20 | FC(F)c1cc(-c2ccccc2)n2ncnc2n1 [CBK025714] | 77.3205
21 | CCCn1ccnc1SCC(=O)Nc1ccc(CN2CCOCC2)cc1 [CBK306068] | 48.1241

Row | Structure (SMILES) | % of control remaining
22 | OCc1cc(N2CCOC3(CCCOC3)C2)ncc1F (centres unmarked) [CBK304774] | 58.6927
23 | Cc1ccc(S(=O)(=O)n2c(SCc3ccccc3)nc3ccccc32)cc1 [CBK293933] | 85.8068
24 | COc1ccc(S(=O)(=O)N(C)CC(=O)Nc2ccc(C(N)=O)cc2)cc1Cl [CBK267891] | 102.709
25 | Cn1cc(-c2nccnc2OCCc2cccs2)cn1 [CBK107066] | 97.285
26 | Cn1c(Cc2csc(NC(=O)CNC(=O)Cc3ccccc3)n2)n[nH]c1=S [CBK296765] | 86.1948
27 | CC(C)(CC(=O)O)CC(=O)Nc1ccc(Cl)c(Cl)c1 [CBK086500] | 44.6238
28 | O=c1oc2c(CN3CCN(CCO)CC3)c(O)ccc2cc1-c1nc(-c2ccc(Br)cc2)cs1 [CBK264949] | 45.3528
29 | CC(=O)NC1CCN(CC2(c3ccc(F)cc3)CCCC2)CC1 [CBK283327] | 102.494
30 | Cc1ccc2oc(-c3cc(NC(=O)c4nc[nH]n4)ccc3O)nc2c1 [CBK266900] | 77.0778
31 | CC(=O)Nc1ccc(-c2cccc(COC3CCN(C(=O)c4ccc(OC(C)C)cc4)CC3)c2)cc1 [CBK149485] | 5.634
32 | Cc1ccc(S(=O)(=O)NCC(C)O)cc1-c1nnc2c3ccccc3c(C)nn12 (centres unmarked) [CBK266614] | 139.081
33 | CC(C)CC(C(=O)Nc1nnc(C(C)C)s1)N1C(=O)c2ccccc2C1=O (centres unmarked) [CBK091610] | 51.0472
34 | COc1ccc2[nH]c(SCC(=O)O)nc2c1 [CBK091620] | 72.5146
35 | O=C(NCCCN1CCOCC1)c1nn2c(C(F)(F)F)cc(-c3cccs3)nc2c1Cl [CBK262553] | 95.532
36 | OCc1nc2cc3cn[nH]c3cc2[nH]1 [CBK016203] | 106.727
37 | CC(C)[C@@H](CO)Nc1cncc(-c2cccc3ccccc23)n1 [CBK065566] | 20.1836
38 | CCOC(=O)c1cccc(-c2ccsc2)n1 [CBK149244] | 84.839
39 | O=C(NCCNc1ccc([N+](=O)[O-])cc1Cl)c1ccccc1Cl [CBK263541] | 87.1028
40 | Cn1cc(C(=O)NCC(c2ccc(F)cc2)N2CCCC2)ccc1=O (centres unmarked) [CBK282843] | 112.995
41 | CC(C)c1ccc(S(=O)(=O)N2CC3CC2CO3)cc1 (centres unmarked) [CBK050999] | 62.1049
